# Laboratory results: a collection of fitness landscapes (doi:10.1016/j.celrep.2020.107928)
# Over roughly 81,000 sequences, “one-hybrid fitness for binding parS DNA” has its median near -0.17; the highest 2% begin near 0.51. Some of the results follow.
# B1: Caulobacter ParB omega fusion; a variant is named by its letters at X, in order, B8GW30 (parent)
# chain: MESVVVGEPGMSEGRRGLGRGLSALLGEVDAAPAQAPGEQLGGSREAPIEILQRNPDQPRRTFREEDLEDLSNSIREKGVLQPILVRPSPDTAGEYQIVAGERAWRAAQRAGLKTVPIMVRELDDLAVLEIGIIENVQRADLNVLEEALSYKVLMEKFERTQENIAQTIGKSXSHVANXMRLLXLPDEVQSYLVSGELTAXHARAIAAAADPVALAKQIIEGGLSVRETEALARKAPNLSAGKSKGGRPPRVKDTDTQALESDLSSVLGLDVSIDHRGSTGTLTITYATLEQLDDLCNRLTRGI
# Variants of: B1
# Test: one-hybrid fitness for binding parS DNA (scaled: cognate 1, non-cognate 0); higher = stronger binding
# Conditions: with parS DNA site
# How it was run: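 Bacterial one-hybrid selection in E. coli USO rpoZ- hisB- pyrF- with a HIS3 reporter carrying the site 19 bp from the promoter, screening Caulobacter ParB libraries with four specificity codons randomised (NNS). Cells grew 48 hours at 37°C on M9-minus-histidine plus 0.1 mM IPTG and 5 mM 3-AT. Plasmids before and after selection were Illumina-sequenced, three replicate libraries pooled, and variants under 10 reads dropped. Fitness is the log change in variant-to-wild-type read ratio, rescaled to cognate 1, non-cognate 0.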
row,Variant,one-hybrid fitness for binding parS DNA
1,QPPK,≤ 0.2
2,WPVC,≤ 0.2
3,LRGA,≤ 0.2
4,ANQR,≤ 0.2
5,SIHV,≤ 0.2
6,CGAE,≤ 0.2
7,PDTR,≤ 0.2
8,PKYG,≤ 0.2
9,EIEL,0.24
10,WFTR,≤ 0.2
11,VGQM,≤ 0.2
12,PTYE,≤ 0.2
13,SNWT,≤ 0.2
14,RYET,0.772
15,PPAE,≤ 0.2
16,FVAC,≤ 0.2
17,QCST,≤ 0.2
18,QPVR,≤ 0.2
19,LLLN,≤ 0.2
20,TTHD,≤ 0.2
21,YDYI,≤ 0.2
22,QMFS,≤ 0.2
23,NVLT,≤ 0.2
24,VYTT,≤ 0.2

row,Variant,one-hybrid fitness for binding parS DNA
1,NLHH,≤ 0.2
2,PRHA,≤ 0.2
3,IKVF,≤ 0.2
4,PNTC,≤ 0.2
5,SVEG,≤ 0.2
6,SNAT,≤ 0.2
7,LSSR,≤ 0.2
8,PQWW,≤ 0.2
9,SEWR,≤ 0.2
10,GFTP,≤ 0.2
11,DHPI,≤ 0.2
12,QCVT,≤ 0.2
13,KCSF,≤ 0.2
14,ATHW,≤ 0.2
15,IRHF,≤ 0.2
16,HRHP,≤ 0.2
17,LYWE,≤ 0.2
18,HEKD,≤ 0.2
19,KADC,≤ 0.2
20,HCEG,≤ 0.2
21,NVNR,≤ 0.2
22,PACR,≤ 0.2
23,HRHT,≤ 0.2
24,AGGQ,≤ 0.2

row,Variant,one-hybrid fitness for binding parS DNA
1,PDNW,≤ 0.2
2,KNPS,≤ 0.2
3,GVPG,≤ 0.2
4,GSWG,≤ 0.2
5,TTLI,≤ 0.2
6,DFLP,≤ 0.2
7,QTES,≤ 0.2
8,KERS,≤ 0.2
9,ASEG,≤ 0.2
10,NIGW,≤ 0.2
11,KRFK,≤ 0.2
12,WMIA,≤ 0.2
13,YNSC,≤ 0.2
14,DNVS,≤ 0.2
15,WLNT,≤ 0.2
16,LDES,≤ 0.2
17,NQTS,≤ 0.2
18,KCKK,≤ 0.2
19,MSLT,≤ 0.2
20,CRHR,≤ 0.2
21,RMEP,≤ 0.2
22,GSRV,≤ 0.2
23,HKTR,≤ 0.2
24,KSMI,≤ 0.2

row,Variant,one-hybrid fitness for binding parS DNA
1,FGTM,≤ 0.2
2,KLFE,≤ 0.2
3,TCSV,≤ 0.2
4,NELV,≤ 0.2
5,GCSS,≤ 0.2
6,PPSF,≤ 0.2
7,AYAM,≤ 0.2
8,NPKY,≤ 0.2
9,GMPT,≤ 0.2
10,PYGG,≤ 0.2
11,CRHA,≤ 0.2
12,QVFY,≤ 0.2
13,KRKA,≤ 0.2
14,LISM,≤ 0.2
15,FATD,≤ 0.2
16,DLRY,≤ 0.2
17,FGMR,≤ 0.2
18,RPQE,≤ 0.2
19,GTLL,≤ 0.2
20,VQSC,≤ 0.2
21,PHAL,≤ 0.2
22,NISL,≤ 0.2
23,IAHF,≤ 0.2
24,QGPQ,≤ 0.2

row,Variant,one-hybrid fitness for binding parS DNA
1,SAYS,≤ 0.2
2,CKRT,≤ 0.2
3,TWRC,≤ 0.2
4,DGLF,≤ 0.2
5,RWQK,≤ 0.2
6,RANE,≤ 0.2
7,AAAW,≤ 0.2
8,GLPF,≤ 0.2
9,TPIL,≤ 0.2
10,SANP,≤ 0.2
11,PNAH,≤ 0.2
12,IVMG,≤ 0.2
13,LGTH,≤ 0.2
14,LVEQ,≤ 0.2
15,QMYR,≤ 0.2
16,NRTG,≤ 0.2
17,GLQG,≤ 0.2
18,TAVR,≤ 0.2
19,QVMV,≤ 0.2
20,SAHA,≤ 0.2
21,CGAH,≤ 0.2
22,NVWG,≤ 0.2
23,RKDY,0.38
24,SIIG,≤ 0.2

row,Variant,one-hybrid fitness for binding parS DNA
1,QKCI,≤ 0.2
2,DHCT,≤ 0.2
3,WTHQ,≤ 0.2
4,NRSN,≤ 0.2
5,AYAL,≤ 0.2
6,PCTF,≤ 0.2
7,RNGG,0.841
8,QNQA,≤ 0.2
9,LQAQ,≤ 0.2
10,LRCV,≤ 0.2
11,QTVG,≤ 0.2
12,RHNG,0.953
13,ESNG,≤ 0.2
14,QTPV,≤ 0.2
15,HYAW,≤ 0.2
16,HPGS,≤ 0.2
17,MASQ,≤ 0.2
18,LFSS,≤ 0.2
19,HLRS,≤ 0.2
20,NLWR,≤ 0.2
21,ITNI,≤ 0.2
22,TCLC,≤ 0.2
23,CPDG,≤ 0.2
24,YIVF,≤ 0.2

row,Variant,one-hybrid fitness for binding parS DNA
1,TTVS,≤ 0.2
2,EVSR,≤ 0.2
3,SQLR,≤ 0.2
4,QDQT,≤ 0.2
5,WRYS,≤ 0.2
6,WVQR,≤ 0.2
7,RPCD,≤ 0.2
8,AYVN,≤ 0.2
9,QDPD,≤ 0.2
10,PAGY,≤ 0.2
11,HHPR,≤ 0.2
12,HHRL,≤ 0.2
13,QLHI,≤ 0.2
14,ATRC,≤ 0.2
15,PCDC,≤ 0.2
16,AMCT,≤ 0.2
17,CPRT,≤ 0.2
18,TPFG,≤ 0.2
19,PAGT,≤ 0.2
20,EVTF,≤ 0.2
21,QIWK,≤ 0.2
22,RSDM,≤ 0.2
23,VDSR,≤ 0.2
24,NIKC,≤ 0.2

row,Variant,one-hybrid fitness for binding parS DNA
1,EKTC,≤ 0.2
2,SLER,≤ 0.2
3,RCKE,≤ 0.2
4,RSEY,0.361
5,RCYE,≤ 0.2
6,NKWR,≤ 0.2
7,NMST,≤ 0.2
8,IPTS,≤ 0.2
9,EICA,≤ 0.2
10,QIKC,≤ 0.2
11,SPGY,≤ 0.2
12,YHHW,≤ 0.2
13,PKSP,≤ 0.2
14,HKTW,≤ 0.2
15,PSRS,≤ 0.2
16,TWKE,≤ 0.2
17,IVLR,≤ 0.2
18,APIC,≤ 0.2
19,IQDW,0.228
20,KVNV,≤ 0.2
21,YCST,≤ 0.2
22,NPPN,≤ 0.2
23,STMP,≤ 0.2
24,ISTI,≤ 0.2

row,Variant,one-hybrid fitness for binding parS DNA
1,GAPV,≤ 0.2
2,SLQD,≤ 0.2
3,TPVH,≤ 0.2
4,WKFT,≤ 0.2
5,GCDS,≤ 0.2
6,LQMG,≤ 0.2
7,YRRN,≤ 0.2
8,WMHC,≤ 0.2
9,CYYY,≤ 0.2
10,ATHR,≤ 0.2
11,KAAR,≤ 0.2
12,KTSD,≤ 0.2
13,DHKL,≤ 0.2
14,NVRT,≤ 0.2
15,MDRT,≤ 0.2
16,ASVC,≤ 0.2
17,HIEG,≤ 0.2
18,CIPY,≤ 0.2
19,PSSE,≤ 0.2
20,TIKG,≤ 0.2
21,VIPQ,≤ 0.2
22,RNTF,≤ 0.2
23,HALW,≤ 0.2
24,MLTN,≤ 0.2

row,Variant,one-hybrid fitness for binding parS DNA
1,HNTF,≤ 0.2
2,HLLP,≤ 0.2
3,CAHC,≤ 0.2
4,WPTT,≤ 0.2
5,LTDS,≤ 0.2
6,TWLE,≤ 0.2
7,QVVM,≤ 0.2
8,SQYW,≤ 0.2
9,RWMC,0.628
10,GVQT,≤ 0.2
11,QEYR,≤ 0.2
12,FDAS,≤ 0.2
13,VHHI,≤ 0.2
14,YAHL,≤ 0.2
15,PRVA,≤ 0.2
16,QTNW,≤ 0.2
17,TDQF,≤ 0.2
18,RVRW,0.224
19,HHAA,≤ 0.2
20,MERS,≤ 0.2
21,IHDS,≤ 0.2
22,WVGT,≤ 0.2
23,PGSF,≤ 0.2
24,VESL,≤ 0.2

row,Variant,one-hybrid fitness for binding parS DNA
1,ATDR,≤ 0.2
2,IYPY,≤ 0.2
3,RFHS,0.996
4,TPTK,≤ 0.2
5,KQLR,≤ 0.2
6,GCLF,≤ 0.2
7,QTSH,≤ 0.2
8,NITE,≤ 0.2
9,IQDR,≤ 0.2
10,AKLH,≤ 0.2
11,RCGN,0.445
12,VKRS,≤ 0.2
13,RCPL,≤ 0.2
14,SFLY,≤ 0.2
15,SYWS,≤ 0.2
16,YHIF,≤ 0.2
17,FWMR,≤ 0.2
18,NPKE,≤ 0.2
19,YWIC,≤ 0.2
20,QLGF,≤ 0.2
21,RDNG,≤ 0.2
22,IQFG,≤ 0.2
23,PTKL,≤ 0.2
24,MQQW,≤ 0.2

row,Variant,one-hybrid fitness for binding parS DNA
1,PCLY,≤ 0.2
2,FSMP,≤ 0.2
3,SFSC,≤ 0.2
4,HQRY,≤ 0.2
5,FAIR,≤ 0.2
6,PTWC,≤ 0.2
7,TAVC,≤ 0.2
8,RIHV,≤ 0.2
9,EPNC,≤ 0.2
10,YGQG,≤ 0.2
11,RGFD,≤ 0.2
12,SIMG,≤ 0.2
13,TVHC,≤ 0.2
14,WGLF,≤ 0.2
15,NTEY,≤ 0.2
16,FTHT,≤ 0.2
17,TVNC,≤ 0.2
18,PCPP,≤ 0.2
19,RSQL,≤ 0.2
20,RCEL,≤ 0.2
21,TNEG,≤ 0.2
22,MRPK,≤ 0.2
23,AGII,≤ 0.2
24,TRSF,≤ 0.2

row,Variant,one-hybrid fitness for binding parS DNA
1,SLGM,≤ 0.2
2,DEMR,≤ 0.2
3,GNQG,≤ 0.2
4,GRIF,≤ 0.2
5,PTGI,≤ 0.2
6,ALYM,≤ 0.2
7,AGFS,≤ 0.2
8,SSEA,≤ 0.2
9,NEPT,≤ 0.2
10,KAMC,≤ 0.2
11,RPAE,≤ 0.2
12,PPYS,≤ 0.2
13,AKLF,≤ 0.2
14,RIND,0.258
15,CKFS,≤ 0.2
16,EEYA,≤ 0.2
17,DRPT,≤ 0.2
18,VNAL,≤ 0.2
